The values below come from a collection of fitness landscapes (doi:10.1016/j.celrep.2020.107928).

Whole data set: some 81,000 sequences, median “one-hybrid fitness for binding parS DNA” near -0.17, cut for the highest 2% near 0.51. This is one part of the list.

B1: Caulobacter ParB omega fusion; a variant is named by its letters at X, in order, B8GW30 (parent)
chain: MESVVVGEPGMSEGRRGLGRGLSALLGEVDAAPAQAPGEQLGGSREAPIEILQRNPDQPRRTFREEDLEDLSNSIREKGVLQPILVRPSPDTAGEYQIVAGERAWRAAQRAGLKTVPIMVRELDDLAVLEIGIIENVQRADLNVLEEALSYKVLMEKFERTQENIAQTIGKSXSHVANXMRLLXLPDEVQSYLVSGELTAXHARAIAAAADPVALAKQIIEGGLSVRETEALARKAPNLSAGKSKGGRPPRVKDTDTQALESDLSSVLGLDVSIDHRGSTGTLTITYATLEQLDDLCNRLTRGI

Variants of B1 are the subject of this assay. Put plainly: one-hybrid fitness for binding parS DNA (scaled: cognate 1, non-cognate 0); higher = stronger binding. The settings on record: with parS DNA site. The procedure, abridged:
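Pre- and post-selection plasmids were Illumina-sequenced, three replicate libraries were pooled, and any variant with under 10 reads was removed. The libraries were Caulobacter ParB with four specificity codons randomised, selected in E. coli USO through a HIS3 reporter whose site is 19 bp from the promoter. Cells grew 48 hours at 37°C on M9 without histidine, with 0.1 mM IPTG and 5 mM 3-AT. Fitness is the log change in variant-to-wild-type read ratio, rescaled against cognate and non-cognate.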
For the variant VSDY, the “one-hybrid fitness for binding parS DNA” value was at most 0.2. The result for HQSQ reads at most 0.2; that for QLLE, at most 0.2.

As for QNTT, the “one-hybrid fitness for binding parS DNA” value was at most 0.2. The result for ISIA reads at most 0.2; that for PDDD, at most 0.2; that for TYGD, at most 0.2. The result for HPNE reads at most 0.2; that for FACF, at most 0.2; that for TRLF, at most 0.2. With ESYK the figure was at most 0.2. QQAD: the “one-hybrid fitness for binding parS DNA” value is at most 0.2.

In the case of PVHR, the “one-hybrid fitness for binding parS DNA” value was at most 0.2. The result for VTPM reads at most 0.2; that for LQTT, at most 0.2. The result for ALPH reads at most 0.2. For the variant VNME, the “one-hybrid fitness for binding parS DNA” value was at most 0.2. With TVFI the figure was at most 0.2; with RKWS, 0.955; with NFCR, at most 0.2. Consider SVTR, for which the “one-hybrid fitness for binding parS DNA” value is at most 0.2. For FPDL, the “one-hybrid fitness for binding parS DNA” value is at most 0.2.

In the case of NKFG, the “one-hybrid fitness for binding parS DNA” value is at most 0.2. With SIWM the figure was at most 0.2. The result for NEGC reads at most 0.2; that for RKEC, 0.893; that for ATQL, at most 0.2. For NRQY, the “one-hybrid fitness for binding parS DNA” value is at most 0.2. The result for PDEN reads at most 0.2. In the case of VETA, the “one-hybrid fitness for binding parS DNA” value was at most 0.2. The result for KHQI reads at most 0.2; that for PTDV, at most 0.2. With QYGA the figure was at most 0.2.

For LFRN, the “one-hybrid fitness for binding parS DNA” value is at most 0.2. For PEGL, the “one-hybrid fitness for binding parS DNA” value is at most 0.2.

As to DMEL, the “one-hybrid fitness for binding parS DNA” value is at most 0.2.

Regarding SNKS, the “one-hybrid fitness for binding parS DNA” value was at most 0.2. The result for LGME reads at most 0.2. In the case of PARA, the “one-hybrid fitness for binding parS DNA” value is at most 0.2. With MSQI the figure was at most 0.2; with PYMS, at most 0.2. Consider AKWT, for which the “one-hybrid fitness for binding parS DNA” value is at most 0.2.

Turning to GQHM, the “one-hybrid fitness for binding parS DNA” value was at most 0.2.

PFGY: the “one-hybrid fitness for binding parS DNA” value is at most 0.2. The result for EAGT reads at most 0.2; that for WKYM, at most 0.2. With LAMS the figure was at most 0.2. The result for HLVW reads at most 0.2; that for IPVT, at most 0.2; that for DFLL, at most 0.2. Regarding LWVI, the “one-hybrid fitness for binding parS DNA” value is at most 0.2. With RQQN the figure was 0.469.

QHFG: the “one-hybrid fitness for binding parS DNA” value is at most 0.2. With THTC the figure was at most 0.2; with AFSS, at most 0.2; with QWRT, at most 0.2. With PTNG the figure was at most 0.2.

Consider CCSS, for which the “one-hybrid fitness for binding parS DNA” value is at most 0.2. With RKHP the figure was at most 0.2.

As for YSTT, the “one-hybrid fitness for binding parS DNA” value was at most 0.2. Consider EFTV, for which the “one-hybrid fitness for binding parS DNA” value was at most 0.2. On to PSLV, for which the “one-hybrid fitness for binding parS DNA” value was at most 0.2. For the variant FPST, the “one-hybrid fitness for binding parS DNA” value is at most 0.2.

Consider SWYM, for which the “one-hybrid fitness for binding parS DNA” value is at most 0.2. The result for VDDS reads at most 0.2; that for RIMR, at most 0.2.

As for ASDI, the “one-hybrid fitness for binding parS DNA” value is at most 0.2. With ATRN the figure was at most 0.2; with KSLV, at most 0.2; with TRHC, at most 0.2. With HWNY the figure was at most 0.2; with AQTM, at most 0.2; with RVTE, at most 0.2. With ERNP the figure was at most 0.2. In the case of GWRT, the “one-hybrid fitness for binding parS DNA” value is at most 0.2. Regarding DPMS, the “one-hybrid fitness for binding parS DNA” value was at most 0.2. For the variant TNDM, the “one-hybrid fitness for binding parS DNA” value was at most 0.2. As to GPVT, the “one-hybrid fitness for binding parS DNA” value was at most 0.2. For NNNG, the “one-hybrid fitness for binding parS DNA” value is at most 0.2. As to AGPY, the “one-hybrid fitness for binding parS DNA” value is at most 0.2. With NKAR the figure was at most 0.2; with ADFY, at most 0.2. With QYTC the figure was at most 0.2; with KKQC, at most 0.2. The result for VLTP reads at most 0.2. On to PGQN, for which the “one-hybrid fitness for binding parS DNA” value is at most 0.2. In the case of LIGV, the “one-hybrid fitness for binding parS DNA” value was at most 0.2. With SGSS the figure was at most 0.2; with SACA, at most 0.2; with MFPE, at most 0.2. The result for GWRY reads at most 0.2; that for DSYG, at most 0.2; that for DLRF, at most 0.2. Take IPSI: the “one-hybrid fitness for binding parS DNA” value is at most 0.2.

Turning to SPDS, the “one-hybrid fitness for binding parS DNA” value was at most 0.2.

Take GPDI: the “one-hybrid fitness for binding parS DNA” value was at most 0.2.

As for ALLE, the “one-hybrid fitness for binding parS DNA” value was at most 0.2. The result for HLPG reads at most 0.2. With HNDS, the “one-hybrid fitness for binding parS DNA” value was at most 0.2. With LNAN the figure was at most 0.2; with TPEG, at most 0.2; with KCEG, at most 0.2.

Turning to LATR, the “one-hybrid fitness for binding parS DNA” value was at most 0.2. With NKER the figure was at most 0.2. With NSFC the figure was at most 0.2. With TGDM the figure was at most 0.2; with ARPL, at most 0.2.

Take QTKC: the “one-hybrid fitness for binding parS DNA” value is at most 0.2. With KTTS the figure was at most 0.2; with ISIG, at most 0.2; with RTGS, 0.92. As to KQTG, the “one-hybrid fitness for binding parS DNA” value is at most 0.2. The result for CLVK reads at most 0.2; that for QRAG, at most 0.2. With SRYV the figure was at most 0.2; with LMGR, at most 0.2; with NLER, at most 0.2. In the case of QPAV, the “one-hybrid fitness for binding parS DNA” value is at most 0.2. The result for PSPY reads at most 0.2; that for ITPT, at most 0.2. With SHVI the figure was at most 0.2; with DSND, at most 0.2; with ALQS, at most 0.2. With KNHD, the “one-hybrid fitness for binding parS DNA” value was at most 0.2. In the case of PYEG, the “one-hybrid fitness for binding parS DNA” value is at most 0.2. The result for PYVT reads at most 0.2; that for PRTD, at most 0.2.

Regarding SPNL, the “one-hybrid fitness for binding parS DNA” value is at most 0.2. The result for YHLF reads at most 0.2; that for RLYH, 0.271; that for AMGR, at most 0.2. Consider HRFT, for which the “one-hybrid fitness for binding parS DNA” value is at most 0.2. Turning to QVQM, the “one-hybrid fitness for binding parS DNA” value is at most 0.2. The result for PVYT reads at most 0.2; that for RLYR, 0.23; that for LQKC, at most 0.2. The result for VNSF reads at most 0.2; that for WIRC, at most 0.2; that for IWAR, at most 0.2. The result for SYLP reads at most 0.2; that for LFRG, at most 0.2. For VLNV, the “one-hybrid fitness for binding parS DNA” value was at most 0.2. With MYYW the figure was 0.381; with ALGT, at most 0.2. The result for GWRH reads at most 0.2.

Regarding GCGS, the “one-hybrid fitness for binding parS DNA” value was at most 0.2. With NDFI the figure was at most 0.2; with GSRY, at most 0.2. The result for FRKA reads at most 0.2; that for HIFT, at most 0.2; that for QRIK, at most 0.2. With QFSL the figure was at most 0.2; with AALK, at most 0.2.
